# Source: PMC4336329 (PLoS ONE, 2015)
# In all, about 310,000 compounds went through this assay and about 14,000 (4.5%) showed an effect of 50% or more. Effects have a minus sign here. This is one part of the list.
# Molecular target: human ether-à-go-go-related gene (hERG) potassium channel (human, UniProt Q12809)
# Experiment: primary screen, population patch clamp on CHO cells stably expressing hERG
# 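Further: peak tail current of the secondary pulse compared with the same well before compound.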
# human ether-à-go-go-related gene (hERG) potassium channel, sequence (Q12809 whole entry, looked up): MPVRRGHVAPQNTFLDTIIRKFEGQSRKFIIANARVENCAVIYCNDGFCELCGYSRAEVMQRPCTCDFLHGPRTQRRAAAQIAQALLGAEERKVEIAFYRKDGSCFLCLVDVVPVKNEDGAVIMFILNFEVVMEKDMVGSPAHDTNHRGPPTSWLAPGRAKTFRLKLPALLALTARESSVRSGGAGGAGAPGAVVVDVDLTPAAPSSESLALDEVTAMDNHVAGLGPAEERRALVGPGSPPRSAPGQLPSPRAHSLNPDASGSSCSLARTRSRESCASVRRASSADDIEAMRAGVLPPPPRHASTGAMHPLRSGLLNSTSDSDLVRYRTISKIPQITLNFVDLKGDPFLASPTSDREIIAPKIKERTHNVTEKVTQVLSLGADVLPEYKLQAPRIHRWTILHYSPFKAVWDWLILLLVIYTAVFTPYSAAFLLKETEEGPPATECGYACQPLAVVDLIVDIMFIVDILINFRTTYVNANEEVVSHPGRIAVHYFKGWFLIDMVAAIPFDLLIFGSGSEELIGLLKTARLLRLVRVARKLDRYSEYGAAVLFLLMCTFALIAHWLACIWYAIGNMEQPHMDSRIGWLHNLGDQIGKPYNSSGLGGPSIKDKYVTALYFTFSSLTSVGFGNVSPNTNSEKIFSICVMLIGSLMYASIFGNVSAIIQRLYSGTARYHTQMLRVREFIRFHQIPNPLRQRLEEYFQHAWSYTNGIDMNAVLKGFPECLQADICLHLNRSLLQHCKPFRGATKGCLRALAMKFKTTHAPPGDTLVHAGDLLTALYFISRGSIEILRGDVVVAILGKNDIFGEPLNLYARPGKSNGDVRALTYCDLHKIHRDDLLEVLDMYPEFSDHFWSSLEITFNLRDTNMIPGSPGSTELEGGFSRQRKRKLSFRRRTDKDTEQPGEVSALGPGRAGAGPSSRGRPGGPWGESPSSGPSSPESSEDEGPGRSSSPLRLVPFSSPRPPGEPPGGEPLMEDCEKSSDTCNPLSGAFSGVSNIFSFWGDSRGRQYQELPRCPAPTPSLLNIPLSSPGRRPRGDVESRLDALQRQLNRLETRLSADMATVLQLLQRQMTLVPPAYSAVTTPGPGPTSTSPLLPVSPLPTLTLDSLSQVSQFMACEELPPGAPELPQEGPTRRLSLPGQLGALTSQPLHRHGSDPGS
row,Compound,"hERG current change (%, negative = inhibition) at 10uM [%]"
1,CCc1noc(C)c1C(=O)Nc1cc(Cl)ccc1-n1cncn1,-13
2,N=C1/C(=C/c2ccc(OCc3ccccc3F)cc2)C(=O)N=C2SC(CC(=O)N3CCOCC3)=NN12,10.8
3,COc1ccc(C2=NCCn3nc4ccccc4c32)cc1,-9.98
4,CCCCOC(=O)c1ccc(NC(=O)COC(=O)C2CSC3(C)CCC(=O)N23)cc1 (stereo not drawn),-6.92
5,COCCNC(=O)c1cc(-c2ccccc2)nn1CC1CC(c2cccnc2)=NO1 (stereo not drawn),2.9
6,CCN(C(=O)C1CCCO1)c1ccccc1 (stereo not drawn),12.8
7,C/C=C(\C)CN1CCC(Oc2cccc(C(=O)NCc3ccccn3)c2)CC1,-4.59
8,COc1ccc(NS(=O)(=O)c2ccc3c(c2)NC(=O)C(C)S3)cc1 (stereo not drawn),6.53
9,Cc1ccc(S(=O)(=O)N2CCC(C(=O)NNC(=O)c3cccnc3)CC2)cc1,2.37
10,CS(=O)(=O)N1CCN(S(=O)(=O)c2ccccc2[N+](=O)[O-])CC1,22.3
11,COc1ccccc1/C=C/C(=O)N1CCN(S(=O)(=O)c2cc(C)ccc2C)CC1,2.88
12,S=c1[nH]nc(C2CCCCC2)n1/N=C/c1cccs1,11
13,Cc1cc(F)ccc1Oc1cc(NN2CCCCC2)c([N+](=O)[O-])cc1[N+](=O)[O-],-1.11
14,Cc1ccc(-n2ncc3c(=O)n(CC(=O)N(C)C)cnc32)cc1,5.94
15,C=CCN1C(=O)/C(=C\c2ccco2)C(C(=O)OC)=C1C,-10.9
16,CC(=O)Nc1ccc(C(=O)NNC(=O)CCc2ccccc2)cc1,19.6
17,Cc1ccnc(N2C(=O)c3ccccc3C2O)c1 (stereo not drawn),-3.51
18,CCCN1C(=O)c2ccccc2NC1c1cc(OC)c(OC)c(OC)c1 (stereo not drawn),-3.01
19,O=C(O)c1ccc(C(=O)Nc2cccc(NC(=O)C3CCCO3)c2)cc1 (stereo not drawn),-21.3
20,Cc1cc(C)c(C)c(S(=O)(=O)N2CCC(C(=O)Nc3ccncc3)CC2)c1C,-34.2
21,CCOC(=O)[C@H]1[C@H]2COc3ccc(OC)cc3[C@@H]2N2C(=O)[C@H](C)NC(=O)[C@@]12C,15.3
22,COc1ccc(-c2oc3c(CC=C(C)C)c(O[C@@H]4O[C@H](CO)[C@@H](O)[C@H](O)[C@H]4O)cc(O)c3c(=O)c2O[C@@H]2O[C@@H](C)[C@H](O)[C@@H](O)[C@H]2O)cc1,-0.85

row,Compound,"hERG current change (%, negative = inhibition) at 10uM [%]"
1,CCN(CC)CCNC(=O)c1cc2c(=O)n(C)c3ccccc3c2s1,-0.204
2,O=C1c2ccccc2C(=O)N1Cc1ccco1,-3.32
3,COc1ccc2oc(C(=O)NCc3ccccc3CN3CCCC3)c(C)c2c1,-66.1
4,COc1ccc(CN2C(=O)NC(=O)/C(=C\c3cccc(OC)c3OC)C2=O)cc1,10.9
5,C=CCNc1nc(C2(C)CC3(CC(C)OC3=O)C(=O)O2)cs1 (stereo not drawn),-4.86
6,Cc1cc(C)cc(NC(=O)C2CCCN2C(=O)NC2CCCCC2)c1 (stereo not drawn),15.2
7,CCOc1ccc(S(=O)(=O)N2CCCC(C(=O)N3CCC(C(N)=O)CC3)C2)cc1Cl (stereo not drawn),4.76
8,CC(=O)Nc1ccc(S(=O)(=O)N2CCC(C(=O)N[C@@H](Cc3ccccc3)C(=O)O)CC2)cc1,11.1
9,OCCNCCCCOc1ccc(F)cc1,4.18
10,COc1ccc(C2=NNC(c3cccnc3)=Nc3ccc(OC)cc32)cc1,-21.4
11,O=C(c1ccco1)N1CCN(C(=O)c2cccc3c2C(=O)N(Cc2cccnc2)C3)CC1,24.3
12,CC(=O)NC1=NN(C(C)=O)C2(S1)C(=O)N(C(C)=O)c1ccc(C)cc12 (stereo not drawn),18.3
13,Cc1ccc(Nc2nc(N)nc(CN3CCN(c4ccccc4F)CC3)n2)cc1,-67.4
14,COc1ccc(/C=C2\SC(N)=NC2=O)cc1Br,10.1
15,CCOC(=O)c1ccc(NC(=O)c2c(N)n(C)c(=O)n(C)c2=O)cc1,-6.23
16,Cc1ccc(N=C2NC(=O)/C(=C/C=C/c3ccco3)S2)cc1C,13.2
17,C=CCc1c(C)nc2c(C(=O)O)cnn2c1C,8.78
18,Cn1cccc1-c1cc(C(=O)N/N=C/C=C/c2ccccc2)[nH]n1,-43.2
19,CCN(C(=S)NC(=O)CCc1ccccc1)c1ccccc1,-3.24
20,Cc1cccc(Cn2c(N3CCN(C)CC3)nc3c2c(=O)n(C)c(=O)n3C)c1,-49
21,CCOC(=O)c1ccc(Nc2cc(C)nc3ncnn23)cc1,-15.1
22,CCCc1nnc(NS(=O)(=O)c2ccc(OC)cc2)s1,21.3

row,Compound,"hERG current change (%, negative = inhibition) at 10uM [%]"
1,O=C(Cc1ccc(Br)cc1)N/N=C/c1ccc(-c2cccc(C(=O)O)c2)o1,3.87
2,O=C(CSc1ccc(-c2nc3ccccc3[nH]2)cn1)Nc1ccc2c(c1)OCCO2,13.9
3,CC(=O)c1cccc(NC(=S)N2c3ccccc3CC2C)c1 (stereo not drawn),12.2
4,C=C1C(C(=O)Nc2ccc(F)cc2)C1C(=O)Nc1ccc(F)cc1 (stereo not drawn),36.8
5,O=C1NCC2=C1C(c1ccc(Br)cc1)Nc1ccccc1N2 (stereo not drawn),-10.7
6,O=c1[nH]c2ccccc2nc1/C=C(\O)C(F)F,6.51
7,CCCCN1C(Nc2ccccc2)=NC[C@@H]1CC(C)C,-34.5
8,Cc1cc(=O)oc2cc(OC(=O)CCN3C(=O)c4ccccc4C3=O)ccc12,-0.518
9,O=C(CNC1CC1)Nc1cc(C(F)(F)F)ccc1Cl.O=C(O)C(=O)O,-0.561
10,COc1ccc(N2C(=O)CC(Sc3nccc(C)n3)C2=O)cc1 (stereo not drawn),-3.04
11,C/C=C1/CN2[C@@H]3C4CO[C@@H]3c3c([nH]c5cc(OC)ccc35)[C@@H]2CC14 (stereo partly drawn),-0.486
12,CC1CCC(NC(=O)COC(=O)c2ccc3ncsc3c2)CC1 (stereo not drawn),10.2
13,Clc1ccc(OCCN2CCOCC2)cc1Cl,-3.13
14,OCC[n+]1ccc(/C=C/c2c[nH]c3ccccc23)cc1,4.13
15,CCCc1nc(SCC(=O)Nc2nccs2)c2ccccc2n1,10.4
16,Cc1sc2ncnc(SCC(=O)NCC3CCCO3)c2c1C (stereo not drawn),1.53
17,Cc1ccc(NC(=O)CSc2nc(N)cc(N)n2)cc1S(=O)(=O)N1CCOCC1,7.71
18,CC12CCC(=O)N1C(C(=O)Nc1cccc(S(=O)(=O)N3CCCCCC3)c1)CS2 (stereo not drawn),-69.8
19,COc1ccc(N(CC(=O)NN=C2CCCCCCC2)S(=O)(=O)c2ccccc2)cc1Cl,4.77
20,O=C(Nc1ccccc1)Nc1ccc(Cl)c([N+](=O)[O-])c1,-2.27
21,O=C(c1cccn2c(=O)c3cc4ccccc4cc3nc12)N1CCN(c2ccccc2)CC1,-7.73
22,COc1cc(OC)c(OC)cc1CNCCc1cccc(F)c1.O=C(O)C(=O)O,-15.2

row,Compound,"hERG current change (%, negative = inhibition) at 10uM [%]"
1,COc1ccc(NC(=O)CNS(=O)(=O)c2cccs2)c(OC)c1,-5.54
2,COC(=O)CCC(=O)OC1(C)C(=O)C2=CN(C3CC3)C(c3ccc(OC)cc3)=CC2=C(Br)C1=O (stereo not drawn),14.4
3,O=C1CNCc2[nH]c3ccccc3c2N1c1ccccc1,-3.51
4,CC(C)[C@H](NC(=O)NCCc1ccc(Cl)cc1)C(=O)O,5.9
5,O=C(Nc1ccnc(-c2cccnc2)n1)c1ccc(Cl)c(Cl)c1,-11.5
6,Cc1cc(Cl)ccc1OCc1n[nH]c(=S)n1C1CCCCC1,21.1
7,Cc1noc(C)c1S(=O)(=O)N(CC(=O)NC(C)c1ccccc1)c1ccc(C(C)C)cc1 (stereo not drawn),14.5
8,CCOC(=O)CCSc1n[nH]c(=S)s1,18.1
9,O=C(Nc1ccccc1F)c1ccc(CSc2ncccn2)cc1,13.5
10,COc1ccc(N/C=C/C(=O)c2ccc(Oc3ncccn3)cc2)cc1,3.16
11,Cc1occc1C(=O)Nc1cc(C(C)(C)C)on1,-25
12,O=C(N=C1SC2CS(=O)(=O)CC2N1c1ccc(Br)cc1)C1CCCO1 (stereo not drawn),4
13,Cc1cc(C)c(NC(=O)CSc2nnc(Cc3cccn3C)n2-c2ccc(F)cc2)c(C)c1,-20.2
14,O=C(O)C1CCN(S(=O)(=O)Cc2ccccc2)CC1,11.4
15,CCOc1ccc(S(=O)(=O)NCCSCc2ccco2)cc1,-20.4
16,CC(=O)c1cccc(NC=C2C(=O)OC3(CCCCC3)OC2=O)c1,-37.9
17,Cc1cccc(NC(=S)NCCc2ccc(Cl)cc2)c1C,14.2
18,O=C(Cn1ncc2c3ccccc3n(Cc3ccccc3)c2c1=O)NCCN1CCOCC1,-57
19,CC(=O)N1CCC(N(CCCOC(C)C)C(=O)Nc2ccc(C)c(C)c2)CC1,-15.8
20,COc1ccc(C(=O)Nc2ccccc2[N+](=O)[O-])cc1S(=O)(=O)N1CCOCC1,5.04
21,Cc1cc2cc(CCNC(=O)c3ccc(Br)o3)c(=O)[nH]c2cc1C,-38.5
